According to the BET-seq Pho4 binding data (Le et al. 2018):
The other results are listed elsewhere or left out. Values were computed here from the reads of four pooled replicates and scatter widely.

Biological target: T1, Pho4 (S. cerevisiae) (UniProt P07270)
T1 sequence: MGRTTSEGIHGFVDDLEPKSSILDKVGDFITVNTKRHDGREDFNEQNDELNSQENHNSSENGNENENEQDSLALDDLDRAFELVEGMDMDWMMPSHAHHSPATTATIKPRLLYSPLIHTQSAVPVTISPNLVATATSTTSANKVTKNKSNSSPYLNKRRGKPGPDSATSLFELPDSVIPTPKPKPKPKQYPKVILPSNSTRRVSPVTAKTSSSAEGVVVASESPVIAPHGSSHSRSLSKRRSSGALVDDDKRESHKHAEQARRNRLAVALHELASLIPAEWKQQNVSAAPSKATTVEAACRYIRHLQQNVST
Experiment: relative binding free energy (BET-seq); higher = weaker binding
Details: reference: library average

Sequence | relative binding free energy [kcal/mol]
AGTAGCACGTGAAGGT | 0.29
GATGGCACGTGCTGTG | -0.17
GTCATCACGTGTGTAT | 0.12
TTCGTCACGTGGGCCG | 0.08
TGGTTCACGTGCTTCA | 0.22
GGTTGCACGTGCGTGG | 0.04
GGATTCACGTGTTGAT | 0.41
TATTTCACGTGTGAGA | 0.33
TGGTGCACGTGAATAT | 0.21
GGTTGCACGTGCATGG | 0.07
AATTACACGTGGTTGG | 0.12
AGTAGCACGTGGAAGT | -0.02
TGCTTCACGTGAGATG | 0.44
AGGCGCACGTGCAGGG | -0.28
TCGGTCACGTGGGTTG | 0.08
CGGTTCACGTGGTATA | 0.18
CGTCTCACGTGGGGTA | 0
TTCTGCACGTGGTGTT | -0.05
AACGGCACGTGGAGGG | -0.22
TAATGCACGTGGTGCG | -0.09
TGGTCCACGTGCGAGG | -0.03
TTTGCCACGTGGTGTA | -0.22
CGAGCCACGTGAGGTG | 0.28
TACTTCACGTGGAGGA | 0.29
TCTGGCACGTGGTATG | -0.13

Sequence | relative binding free energy [kcal/mol]
AAGGGCACGTGCTATG | -0.2
CTTTACACGTGTTTAA | 0.04
GGAATCACGTGGTTAA | 0.23
TAGTACACGTGTTGCG | -0.02
TTATGCACGTGTTTAA | 0.03
GGTGACACGTGATGAT | 0.24
AGATGCACGTGGACGT | -0.08
ATAGCCACGTGGAGTT | -0.01
AGTCTCACGTGTGGAT | 0.1
AGGGTCACGTGGGACG | 0.03
TATTTCACGTGCAGGA | 0.22
GTAGGCACGTGATGTA | 0.03
TAGGTCACGTGTTCTT | 0.11
GTTGACACGTGGGCGT | -0.15
AAATGCACGTGTTGAA | 0.09
TTGTGCACGTGAATGT | 0.18
AATGGCACGTGTGCGC | 0.01
GGAGGCACGTGATGCG | 0.14
AGGTGCACGTGCGGGT | 0.02
TTGCTCACGTGGGTTT | 0.16
GTAATCACGTGGTTTC | 0.14
AGGGGCACGTGATATT | -0.01
CTAGGCACGTGAGGGG | 0.02
TGCTACACGTGGGGGA | -0.13
TGGTTCACGTGCGTAG | 0.21

Sequence | relative binding free energy [kcal/mol]
GTTAGCACGTGATGGT | 0.11
GTTCACACGTGTTGGA | 0.07
TGGATCACGTGAGTCT | 0.24
GGTTTCACGTGGTCAG | 0.26
AGGTTCACGTGTGGGT | 0.24
ATTGTCACGTGCAGGA | 0.12
AGGCGCACGTGAAGTG | 0.06
ATTTCCACGTGTTGGG | 0.23
CGATTCACGTGTGGTA | 0.43
TTGTGCACGTGCTGCG | -0.11
TTGATCACGTGTGGCG | 0.04
AGGTTCACGTGTTACA | 0.25
AGGGGCACGTGTCTAT | -0.1
GTTTACACGTGGTGCG | 0.21
TTATTCACGTGTTTCG | 0.24
TGGTCCACGTGTTTAG | 0.02
ATAAGCACGTGTATGG | -0.08
GCGGGCACGTGCGCGT | -0.09
AAAAGCACGTGGTGAG | -0.03
TAAGCCACGTGTTGTT | -0.07
TGTCTCACGTGGTAGA | 0.06
GTGTGCACGTGGGCTC | -0.1
TTTATCACGTGGTGTT | 0.05
AGAGTCACGTGTGAGA | 0.18
TGGGTCACGTGGCCAG | 0.06

Sequence | relative binding free energy [kcal/mol]
TTTGTCACGTGTGAGT | 0.24
AGCTGCACGTGGATGG | -0.02
TTTGGCACGTGATACT | -0.02
TTCATCACGTGTTGTA | 0.07
ATTGGCACGTGATCGG | -0.1
TGATGCACGTGGTCAT | -0.19
TGTAACACGTGTGTCG | 0.01
CATGTCACGTGGTAAT | 0.04
GAGGGCACGTGATTGC | 0.05
ATATTCACGTGGCGTT | 0.25
CTGGGCACGTGGTGAG | -0.05
GCTTGCACGTGGTAAG | -0.04
AAGATCACGTGGGGAG | 0.13
GTCAGCACGTGTAGGC | 0.01
GTGTTCACGTGACGTG | 0.3
ATCGTCACGTGGTCGT | 0.05
TGGTCCACGTGAGGGG | 0.22
ATGTACACGTGCGGAG | 0.08
TCGTTCACGTGATAGT | 0.41
GTTGTCACGTGGAATT | 0.29
AGTGTCACGTGACGTG | 0.17
GGTTTCACGTGTGGTG | 0.34
GTTAGCACGTGTAATG | -0.12
GAGGTCACGTGGTATT | -0.07
AGTTGCACGTGTCAGG | 0.02

Sequence | relative binding free energy [kcal/mol]
ATTTTCACGTGCGTGG | 0.11
GTCCTCACGTGTTGGG | 0.21
CTTGTCACGTGGCCGG | 0.17
AGCGGCACGTGTGAGT | -0.07
AGATACACGTGCTTTT | 0.2
TGAAGCACGTGAGGTG | 0.25
TTGTGCACGTGGCTGG | -0.12
TATATCACGTGGGCTT | 0.07
CGAGTCACGTGGGTCT | 0.13
TGGAGCACGTGGATGC | -0.1
AGTTACACGTGGAGCG | 0.35
TAGAGCACGTGTGATT | -0.11
AATTACACGTGCGCGG | 0.18
AAGTTCACGTGTTGAG | 0.16
GGTTTCACGTGGTCGG | 0.31
GTATACACGTGGGGTC | 0.07
GTTGGCACGTGGATTT | 0.07
GTGTTCACGTGACGTA | 0.31
GGTTGCACGTGACTTT | 0.12
TTAGACACGTGGGAGA | -0.2
TGAAGCACGTGTGTGA | 0
TTGCTCACGTGGTGTA | 0.15
CTGGGCACGTGGAGTT | -0.07
GAATTCACGTGTTTTT | 0.23
AAGATCACGTGTTTAA | 0.16

Sequence | relative binding free energy [kcal/mol]
CGGGTCACGTGTAAGG | 0.25
ACGGTCACGTGGATAG | 0.06
TTAGTCACGTGGTTAG | 0.1
TGGGGCACGTGTATTG | -0.01
TGTGTCACGTGCGAGT | 0.17
CTTGTCACGTGTGGTT | 0.17
TACTACACGTGGGTTA | -0.07
GATATCACGTGCAGTT | 0.3
ACGTTCACGTGTGGGC | 0.26
GTAGGCACGTGTCGAT | 0.02
GATTCCACGTGTAGGG | 0.13
TGGGTCACGTGAGGAG | 0.33
GATGCCACGTGTTGTT | 0.03
GAAATCACGTGTATGG | 0.19
TTAGTCACGTGCGGAG | -0.02
AGTATCACGTGATATG | 0.13
GTATGCACGTGATCGG | 0.03
TCTGACACGTGTTAGG | 0.1
GTAAGCACGTGTAGTA | -0.01
GGCAGCACGTGGGATG | -0.07
CTTTACACGTGAGGAT | 0.37
